Over roughly 81,000 sequences, “one-hybrid fitness for binding NBS DNA” has its median near -0.1; the highest 2% begin near 0.36. The list shows a part of the results.
B1: Caulobacter ParB omega fusion; a variant is named by its letters at X, in order, B8GW30 (parent)
chain: MESVVVGEPGMSEGRRGLGRGLSALLGEVDAAPAQAPGEQLGGSREAPIEILQRNPDQPRRTFREEDLEDLSNSIREKGVLQPILVRPSPDTAGEYQIVAGERAWRAAQRAGLKTVPIMVRELDDLAVLEIGIIENVQRADLNVLEEALSYKVLMEKFERTQENIAQTIGKSXSHVANXMRLLXLPDEVQSYLVSGELTAXHARAIAAAADPVALAKQIIEGGLSVRETEALARKAPNLSAGKSKGGRPPRVKDTDTQALESDLSSVLGLDVSIDHRGSTGTLTITYATLEQLDDLCNRLTRGI

Variants of: B1
Experiment: one-hybrid fitness for binding NBS DNA (the Noc-binding site; scaled: cognate 1, non-cognate 0); higher = stronger binding
Settings: with NBS DNA site
Summary of the method: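 Fitness is the rescaled log change in variant-to-wild-type read ratio, measured by Illumina sequencing of plasmids before and after bacterial one-hybrid selection. The scale puts cognate at 1 and non-cognate at 0. Selection of Caulobacter ParB libraries, four specificity codons randomised, took place in E. coli USO with a HIS3 reporter, site 19 bp from the promoter, over 48 hours at 37°C on M9-minus-histidine with 0.1 mM IPTG and 5 mM 3-AT.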

Variant	one-hybrid fitness for binding NBS DNA
KEWR	≤ 0.2
KDHS	≤ 0.2
DITW	≤ 0.2
AMIS	≤ 0.2
LGKF	≤ 0.2
PPKK	≤ 0.2
ERHG	≤ 0.2
RDVM	≤ 0.2
MLHE	≤ 0.2
HLPC	≤ 0.2
CMVC	≤ 0.2
RHNR	0.539
VTNY	≤ 0.2
IKNR	≤ 0.2
KTPC	≤ 0.2
MHDG	≤ 0.2
LQSY	≤ 0.2
KVRG	≤ 0.2
MEHS	≤ 0.2
NSCH	≤ 0.2
YRWN	≤ 0.2
AYCC	≤ 0.2
ATNM	≤ 0.2
AVIY	≤ 0.2
RHNL	≤ 0.2

Variant	one-hybrid fitness for binding NBS DNA
RWGL	≤ 0.2
PHTL	≤ 0.2
ALQH	≤ 0.2
FKSN	≤ 0.2
RLAN	≤ 0.2
RAMA	≤ 0.2
HTEC	≤ 0.2
YMGR	≤ 0.2
QNLW	≤ 0.2
IETK	≤ 0.2
QPHD	≤ 0.2
ETKQ	≤ 0.2
NKWG	≤ 0.2
RLNN	≤ 0.2
HDFC	≤ 0.2
PDHR	≤ 0.2
AMRG	≤ 0.2
SWTN	≤ 0.2
SKNG	≤ 0.2
HTAD	≤ 0.2
RGFP	≤ 0.2
AKSQ	≤ 0.2
YIRY	≤ 0.2
WGHH	≤ 0.2
GHKR	≤ 0.2

Variant	one-hybrid fitness for binding NBS DNA
FPNG	≤ 0.2
RCAV	≤ 0.2
AVNL	≤ 0.2
TLCG	≤ 0.2
HRLW	≤ 0.2
WTTR	≤ 0.2
MQRG	≤ 0.2
RRVK	≤ 0.2
ACYL	≤ 0.2
KFFG	≤ 0.2
AVID	≤ 0.2
INER	≤ 0.2
FWEL	≤ 0.2
QTFK	≤ 0.2
AWDL	≤ 0.2
IQIG	≤ 0.2
QRVE	≤ 0.2
SMCS	≤ 0.2
LNLR	≤ 0.2
YILC	≤ 0.2
FTYW	≤ 0.2
AVRK	≤ 0.2
TYHS	≤ 0.2
GPAY	≤ 0.2
LRYC	≤ 0.2

Variant	one-hybrid fitness for binding NBS DNA
MRIR	≤ 0.2
NLTA	≤ 0.2
PSYY	≤ 0.2
SDNS	≤ 0.2
LIPK	≤ 0.2
FVVS	≤ 0.2
PYWG	≤ 0.2
QLQN	≤ 0.2
RSLI	≤ 0.2
HAYT	≤ 0.2
RGYC	≤ 0.2
KIKY	≤ 0.2
FVQI	≤ 0.2
LPHG	≤ 0.2
KTSM	≤ 0.2
GYPM	≤ 0.2
RWDN	≤ 0.2
SICL	≤ 0.2
IQDV	≤ 0.2
LMLC	≤ 0.2
PIYT	≤ 0.2
EGQR	≤ 0.2
VYNM	≤ 0.2
IQSI	≤ 0.2
AVWC	≤ 0.2

Variant	one-hybrid fitness for binding NBS DNA
LIST	≤ 0.2
IEPM	≤ 0.2
RFQD	≤ 0.2
ALFS	≤ 0.2
QKCS	0.419
RNQP	≤ 0.2
YRMC	≤ 0.2
MLSS	≤ 0.2
WMIP	≤ 0.2
HNSG	≤ 0.2
MYNK	≤ 0.2
WMHS	≤ 0.2
QAQM	≤ 0.2
PAPL	≤ 0.2
QFHT	≤ 0.2
RGTH	≤ 0.2
LVHC	≤ 0.2
REVS	≤ 0.2
GCKT	≤ 0.2
MWRY	≤ 0.2
HQLA	≤ 0.2
ELAR	≤ 0.2
DVVD	≤ 0.2
